# Reference: patent US7592316B2, “Peptides as NS3-serine protease inhibitors of hepatitis C virus” (Schering Corporation, priority 2000, dated 2009)
# Target: HCV NS3/NS4A protease (strain 1a) (Hepatitis C virus genotype 1a, UniProt P27958)
# Experiment: biochemical
# Conditions: Table 5; HCV NS3/NS4A protease, spectrophotometric assay, 30° C., pH 6.5; read-out: Ki* Range
row,Structure (SMILES),Ki [µM]
1,CCCC(NC(=O)[C@@H]1[C@@H]2[C@H](CN1C(=O)[C@@H](NC(=O)[C@H](CC(C)C)NS(C)(=O)=O)C(C)(C)C)C2(C)C)C(=O)C(N)=O (stereo partly shown),0.101 to 1
2,CCCCC(NC(=O)[C@@H]1CC(C)(C)CN1C(=O)[C@@H](NC(=O)OC(C)(C)C)C(C)(C)C)C(=O)C(N)=O (stereo partly shown),> 1
3,CC(C)(C)OC(=O)N[C@H](C(=O)N1C[C@@H]2[C@H]([C@H]1C(=O)NC(CC1CCC1)C(=O)C(N)=O)C2(C)C)C(C)(C)C (stereo partly shown),0.001 to 0.1
4,CCCC(NC(=O)[C@@H]1C(c2ccccc2)CN1C(=O)C(NC(=O)OC(C)(C)C)C1CCCCC1)C(=O)C(N)=O (stereo partly shown),> 1
5,CCCC(NC(=O)[C@@H]1[C@H]2[C@@H](CN1C(=O)[C@@H](NC(=O)OC(CC)CC)C1Cc3ccccc3C1)C2(C)C)C(=O)C(N)=O (stereo partly shown),0.101 to 1
6,CC(C)(C)OC(=O)N[C@H](C(=O)N[C@@H](CC1CC1)C(=O)NC(CC1CC1)C(=O)C(N)=O)C1CCCCC1 (stereo partly shown),0.101 to 1
7,CCCCCCNC(=O)N[C@H](C(=O)N1C[C@H]2[C@@H]([C@H]1C(=O)NC(CCC)C(=O)C(N)=O)C2(C)C)C(C)(C)C (stereo partly shown),0.101 to 1
8,CCCCCCCCCCCCNC(=O)N[C@H](C(=O)N1C[C@H]2[C@@H]([C@H]1C(=O)NC(CCC)C(=O)C(N)=O)C2(C)C)C(C)(C)C (stereo partly shown),> 1
9,CCCC(NC(=O)[C@@H]1[C@@H]2[C@H](CN1C(=O)[C@@H](NC(=O)OC(C)C)C1CCCC1)C2(C)C)C(=O)C(N)=O (stereo partly shown),0.101 to 1
10,CCCC(NC(=O)[C@@H]1[C@@H]2[C@H](CN1C(=O)[C@@H](NC(=O)OC(C)C)C(C)C)C2(C)C)C(=O)C(N)=O (stereo partly shown),> 1
11,CCC(NC(=O)[C@@H]1[C@@H]2[C@H](CN1C(=O)[C@@H](NC(=O)OC(C)(C)C)C1CCCCC1)C2(C)C)C(=O)C(N)=O (stereo partly shown),0.101 to 1
12,CCCC(NC(=O)[C@@H]1[C@@H]2[C@H](CN1C(=O)[C@@H](NC(=O)NC13CC4CC(CC(C4)C1)C3)C(C)(C)C)C2(C)C)C(=O)C(N)=O (stereo partly shown),0.001 to 0.1
13,C=CCCC(NC(=O)[C@@H]1[C@@H]2[C@H](CN1C(=O)[C@@H](NC(=O)NC(C)CC)C1CCCCC1)C2(C)C)C(=O)C(=O)NCC=C (stereo partly shown),0.001 to 0.1
14,C=CCCNC(=O)C(=O)C(CCC=C)NC(=O)[C@@H]1[C@@H]2[C@H](CN1C(=O)[C@@H](NC(=O)OC(C)(C)C)C1CCCCC1)C2(C)C (stereo partly shown),0.001 to 0.1
15,C=CCCC(NC(=O)[C@@H]1[C@@H]2[C@H](CN1C(=O)[C@@H](NC(=O)OC(C)(C)C)C1CCC(=O)CC1)C2(C)C)C(=O)C(=O)NCC=C (stereo partly shown),0.101 to 1
16,C=CCCC(NC(=O)[C@@H]1[C@@H]2[C@H](CN1C(=O)[C@@H](N)C1CCC(F)(F)CC1)C2(C)C)C(=O)C(=O)NCC=C (stereo partly shown),> 1
17,C=CCCC(NC(=O)[C@@H]1[C@@H]2[C@H](CN1C(=O)[C@@H](NC(=O)OC(C)(C)C)C(C)C)C2(C)C)C(=O)C(=O)NCC=C (stereo partly shown),> 1
18,C=CCNC(=O)C(=O)C(CCC1CC1)NC(=O)[C@@H]1[C@@H]2[C@H](CN1C(=O)[C@@H](NC(=O)OC(C)(C)C)C1CCCCC1)C2(C)C (stereo partly shown),0.101 to 1
19,C=CCNC(=O)C(=O)C(CCC)NC(=O)[C@@H]1C2C(CN1C(=O)[C@@H](NC(=O)NC(C)(C)C)C1Cc3ccccc3C1)C2(C)C (stereo partly shown),0.101 to 1
20,C=CCCC(NC(=O)[C@@H]1C2C(CN1C(=O)[C@@H](NC(=O)OC(C)(C)C)C1Cc3ccccc3C1)C2(C)C)C(=O)C(=O)NCCC(=O)OC(C)(C)C (stereo partly shown),0.101 to 1
21,C=CCCC(NC(=O)[C@@H]1[C@@H]2[C@H](CN1C(=O)[C@@H](NC(=O)NC13CC4CC(CC(C4)C1)C3)C1CCCCC1)C2(C)C)C(=O)C(=O)NCC=C (stereo partly shown),0.101 to 1

row,Structure (SMILES),Ki [µM]
1,C=CCCC(NC(=O)[C@@H]1[C@@H]2[C@H](CN1C(=O)[C@@H](NC(=O)N(C(C)C)C(C)C)C1CCCCC1)C2(C)C)C(=O)C(=O)NCC=C (stereo partly shown),0.101 to 1
2,C=CCCC(NC(=O)[C@@H]1[C@@H]2[C@H](CN1C(=O)[C@@H](NC(=O)NC(C)(C)CC(C)(C)C)C1CCCCC1)C2(C)C)C(=O)C(=O)NCC=C (stereo partly shown),0.001 to 0.1
3,C=CCCC(NC(=O)[C@@H]1[C@@H]2[C@H](CN1C(=O)[C@@H](NC(=O)NCC=C)C1CCCCC1)C2(C)C)C(=O)C(=O)NCC=C (stereo partly shown),0.101 to 1
4,C=CCCC(NC(=O)[C@@H]1[C@H]2[C@@H](CN1C(=O)[C@@H](NC(=O)NC(C)(C)c1cccc(C(=C)C)c1)C1CCCCC1)C2(C)C)C(=O)C(=O)NCC=C (stereo partly shown),0.101 to 1
5,C=CCNC(=O)C(=O)C(CCC)NC(=O)[C@@H]1[C@@H]2CCC(C)(C)OC2CN1C(=O)[C@@H](NC(=O)OC(C)(C)C)C(C)(C)C (stereo partly shown),> 1
6,C=CCNC(=O)C(=O)C(Cc1ccccc1)NC(=O)[C@@H]1[C@H]2[C@@H](CN1C(=O)[C@@H](NC(=O)OC(C)(C)C)C(C)(C)C)C2(C)C (stereo partly shown),> 1
7,C=CCCCC(NC(=O)[C@@H]1[C@@H]2[C@H](CN1C(=O)[C@@H](NC(=O)OC(C)(C)C)C1CCCCC1)C2(C)C)C(=O)C(=O)NCC=C (stereo partly shown),0.101 to 1
8,C=CCCCNC(=O)C(=O)C(CCC=C)NC(=O)[C@@H]1[C@H]2[C@@H](CN1C(=O)[C@@H](NC(=O)OC(C)(C)C)C1CCCCC1)C2(C)C (stereo partly shown),0.101 to 1
9,CCCC(NC(=O)[C@@H]1[C@@H]2[C@H](CN1C(=O)[C@@H](NC(=O)OC(C)(C)C)C(C)(C)C)C2(C)C)C(=O)C(=O)NCCC(=O)OC(C)(C)C (stereo partly shown),0.101 to 1
10,C=CCCNC(=O)C(=O)C(CCC=C)NC(=O)[C@@H]1[C@@H]2[C@H](CN1C(=O)[C@@H](NC(=O)OC(C)(C)C)C1Cc3ccccc3C1)C2(C)C (stereo partly shown),0.001 to 0.1
11,C=CCNC(=O)C(=O)C(CCC)NC(=O)[C@@H]1C2C(CN1C(=O)C(NC(=O)OC(C)(C)C)C(c1ccccc1)c1ccccc1)C2(C)C (stereo partly shown),> 1
12,C=CCCNC(=O)C(=O)C(CCC=C)NC(=O)[C@@H]1[C@@H]2[C@H](CN1C(=O)[C@@H](NC(=O)NC13CC4CC(CC(C4)C1)C3)C1CCCCC1)C2(C)C (stereo partly shown),0.101 to 1
13,C=CCCC(NC(=O)[C@@H]1[C@@H]2[C@H](CN1C(=O)[C@@H](OC(=O)NC(C)(C)C)C1CCCCC1)C2(C)C)C(=O)C(=O)NCC=C (stereo partly shown),> 1
14,C=CCNC(=O)C(=O)C(CC1CC1)NC(=O)[C@@H]1[C@H]2[C@@H](CN1C(=O)[C@@H](NC(=O)OC(C)(C)C)C1CCCC1)C2(C)C (stereo partly shown),> 1
15,C=CCCC(NC(=O)[C@@H]1[C@@H]2[C@H](CN1C(=O)[C@@H](NC(=O)[C@@H](NC(=O)OC(C)(C)C)C1CCN(C(=O)OCc3ccccc3)CC1)C1CCCCC1)C2(C)C)C(=O)C(=O)NCC=C (stereo partly shown),0.101 to 1
16,C=CCCC(NC(=O)[C@@H]1[C@@H]2[C@H](CN1C(=O)[C@@H](NC(=O)OC13CC4CC(CC(C4)C1)C3)C1CCCCC1)C2(C)C)C(=O)C(=O)NCC=C (stereo partly shown),0.101 to 1
17,C=CCNC(=O)C(=O)C(CCC)NC(=O)[C@@H]1[C@H]2[C@@H](CN1C(=O)[C@@H](NC(=O)OCC(C)C)C1CCCC1)C2(C)C (stereo partly shown),> 1
18,C=CCNC(=O)C(=O)C(CCC)NC(=O)[C@@H]1[C@H]2[C@@H](CN1C(=O)[C@@H](NC(=O)OCC(C)(C)C)C1CCCC1)C2(C)C (stereo partly shown),0.101 to 1
19,C=CCNC(=O)C(=O)C(CCC)NC(=O)[C@@H]1[C@H]2[C@@H](CN1C(=O)[C@@H](NC(=O)OC(CC)CC)C1CCCC1)C2(C)C (stereo partly shown),0.101 to 1
20,C=CCNC(=O)C(=O)C(CCC)NC(=O)[C@@H]1[C@H]2[C@@H](CN1C(=O)[C@@H](NC(=O)CC(C)CC)C1CCCC1)C2(C)C (stereo partly shown),> 1
21,C=CCNC(=O)C(=O)C(CC=C)NC(=O)[C@@H]1C2C(CN1C(=O)[C@@H](NC(=O)OC(C)(C)C)C1CCCC1)C2(C)C (stereo partly shown),> 1

row,Structure (SMILES),Ki [µM]
1,C=CCC(NC(=O)[C@@H]1[C@H]2[C@@H](CN1C(=O)[C@@H](NC(=O)OC(C)(C)C)C1CCCC1)C2(C)C)C(=O)C(=O)NCCC(=O)OC(C)(C)C (stereo partly shown),0.101 to 1
2,C=CCC(NC(=O)[C@@H]1C2C(CN1C(=O)[C@@H](NC(=O)OC(C)(C)C)C1Cc3ccccc3C1)C2(C)C)C(=O)C(=O)NCCC(=O)OC(C)(C)C (stereo partly shown),> 1
3,C=CCNC(=O)C(=O)C(CC1CCC1)NC(=O)[C@@H]1[C@H]2[C@@H](CN1C(=O)[C@@H](NC(=O)OC(C)(C)C)C(C)(C)C)C2(C)C (stereo partly shown),> 1
4,C=CCCC(NC(=O)[C@@H]1[C@@H]2[C@H](CN1C(=O)[C@@H](NC(=O)NC1CCCCC1)C1CCCCC1)C2(C)C)C(=O)C(=O)NCC=C (stereo partly shown),0.101 to 1
5,C=CCNC(=O)C(=O)C(CCC)NC(=O)[C@@H]1[C@H](c2ccccc2)CN1C(=O)C(NC(=O)OC(C)(C)C)C1CCCCC1 (stereo partly shown),> 1
6,C=CCNC(=O)C(=O)C(CCC)NC(=O)[C@@H]1[C@H]2[C@@H](CN1C(=O)C(NCCC(C)c1ccccc1)C(C)(C)C)C2(C)C (stereo partly shown),> 1
7,C=CCNC(=O)C(=O)C(CCC)NC(=O)[C@@H]1C2C(CN1C(=O)C(NCCc1ccccc1)C(C)(C)C)C2(C)C (stereo partly shown),> 1
8,C=CCNC(=O)C(=O)C(CCC)NC(=O)[C@@H]1[C@H]2[C@@H](CN1C(=O)C(NCCC(C)(C)C)C(C)(C)C)C2(C)C (stereo partly shown),> 1
9,C=CCCC(NC(=O)[C@@H]1[C@@H]2[C@H](CN1C(=O)[C@@H](NC(=O)OC(C)(C)C)C1CCN(C(=O)OCc3ccccc3)CC1)C2(C)C)C(=O)C(=O)NCC=C (stereo partly shown),0.101 to 1
10,CC(C)(C)OC(=O)CCNC(=O)C(=O)C(CC1CCC1)NC(=O)[C@@H]1C2C(CN1C(=O)C(NC(=O)OC(C)(C)C)C(C)(C)C)C2(C)C (stereo partly shown),> 1
11,C=CCCNC(=O)C(=O)C(CCC=C)NC(=O)[C@@H]1[C@@H]2[C@H](CN1C(=O)[C@@H](NC(=O)OC(C)(C)C)C(C)(C)C)C2(C)C (stereo partly shown),0.101 to 1
12,C=CCCNC(=O)C(=O)C(CCC=C)NC(=O)[C@@H]1[C@@H]2[C@H](CN1C(=O)[C@@H](N)C(C)(C)C)C2(C)C (stereo partly shown),> 1
13,C=CCNC(=O)C(=O)C(CCC)NC(=O)[C@@H]1[C@H]2[C@@H](CN1C(=O)[C@@H](NC(=O)OCC=C)C1CCCC1)C2(C)C (stereo partly shown),> 1
14,C=CCCC(NC(=O)[C@@H]1[C@H]2[C@@H](CN1C(=O)[C@@H](NC(=O)NC(C)(C)C)C1Cc3ccccc3C1)C2(C)C)C(=O)C(=O)NCC=C (stereo partly shown),0.001 to 0.1
15,C=CCCC(NC(=O)[C@@H]1[C@H]2[C@@H](CN1C(=O)[C@@H](NC(=O)NC(C)CC)C1Cc3ccccc3C1)C2(C)C)C(=O)C(=O)NCC=C (stereo partly shown),0.001 to 0.1
16,C=CCCC(NC(=O)[C@@H]1[C@H]2[C@@H](CN1C(=O)[C@@H](NC(=O)NC(C)C)C1Cc3ccccc3C1)C2(C)C)C(=O)C(=O)NCC=C (stereo partly shown),0.001 to 0.1
17,C=CCCC(NC(=O)[C@@H]1[C@H]2[C@@H](CN1C(=O)[C@@H](NC(=O)NC1C[C@H]1c1ccccc1)C1Cc3ccccc3C1)C2(C)C)C(=O)C(=O)NCC=C (stereo partly shown),> 1
18,C=CCCC(NC(=O)[C@@H]1[C@H]2[C@@H](CN1C(=O)[C@@H](NC(=O)Nc1ccccc1)C1Cc3ccccc3C1)C2(C)C)C(=O)C(=O)NCC=C (stereo partly shown),0.101 to 1
19,C=CCCC(NC(=O)[C@@H]1[C@H]2[C@@H](CN1C(=O)[C@@H](NC(=O)NCc1ccccc1)C1Cc3ccccc3C1)C2(C)C)C(=O)C(=O)NCC=C (stereo partly shown),0.101 to 1
